Experimental data: PubChem BioAssay AID686970 (National Center for Advancing Translational Sciences (NCATS), 2013)
About 6,000 (1.7%) of roughly 360,000 compounds were called active. The inconclusive results got no clear call from the source; some entries with a clear call stand among them for comparison. Calls follow the shape of the dose curve; as a rule, active = well fitted cell-killing curve with a large enough effect; inconclusive = small, poorly fitted or top-dose-only effect, or effect the other way; inactive = flat fitted curve, though single readings scatter. No potency is given beside an inconclusive call; the fits are too rough.

Test: qHTS for induction of synthetic lethality in tumor cells producing 2HG: qHTS for the HT-1080-NT fibrosarcoma cell line;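 also: NT is the 2HG producing partner of a matched IDH1 knockdown line; nearly all actives have a fitted effect of over 55% in size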;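 as to activity, negative = less viability: 0% = DMSO-treated cells and -100% = media-only wells without cells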
Settings: HT-1080-NT fibrosarcoma viability, CellTiter-Glo ATP luminescence, 48 h; activity, negative = less viability: at 46.1 µM (top of the series) unless noted
How it was run: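 A 48-hour cytotoxicity screen used HT-1080-NT cells plated 2 hours before compound delivery. ATP-based CellTiter-Glo luminescence measured viability, normalized to DMSO and no-cell controls.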
Potency is read from the fitted curve at half-maximal effect; tags tell the direction and shape of the fitted curve.

SMILES	Potency	activity, negative = less viability
CC(C)C[C@@H]1CN(CCCC[C@H]2CNC(=O)C(=O)N2CCC2CCCCC2)C(=O)C(=O)N1Cc1ccccc1	inconclusive [cytotoxic, partial curve, poor fit]	
C[C@@H](C(=O)NCC1CC1)[C@H]1C[C@]1(C)[C@H](NC(=O)OCc1ccccc1)c1ccccc1	inactive	
COc1c(O)cc2c(c1O)[C@@H]1OC(CO)C(O)C(O)[C@H]1OC2=O (some centres undefined)	inactive	
Cc1cc(C)c(OCCCNC2CCCC2)c(Br)c1	inconclusive [cytotoxic, single point]	
O=C(CCn1c(=O)[nH]c2ccccc2c1=O)Nc1ccccc1	inconclusive [rising, single point]	
Cc1ccc(-c2csc(C(C)(O)c3ccc(F)c(F)c3)n2)cc1C (centres undefined)	inconclusive [cytotoxic, single point]	
CN1C(=O)/C(=N\OC(=O)c2cccc3ccccc23)c2ccccc21	active: 12.6 µM	
NNC(=S)NCc1ccc2c(c1)OCO2	inactive	
COc1cc(NC(=O)c2cnc(NCc3ccccc3)nc2C)cc(OC)c1OC	inconclusive [cytotoxic, single point]	
O=C(Nc1cccc([N+](=O)[O-])c1)NC1CCCCCCC1	inconclusive [cytotoxic, single point]	
CCOc1cc2c(cc1OCC)C(c1ccccc1)N(c1ccccc1)C(=O)C2 (centres undefined)	inconclusive [cytotoxic, partial curve]	
CCOc1ncccc1C(=O)N1CCN(c2cccc(C)c2C)CC1	active: 0.184 µM	
COc1ccc(CNC(=O)N2CCc3nc(Nc4cc(OC)c(OC)c(OC)c4)ncc3C2)cc1	inactive	
O=C(NCc1ccco1)c1cc2sccc2n1Cc1ccccc1	inconclusive [cytotoxic, single point]	
N=c1c2c(-c3ccccc3)c(-c3ccccc3)n(Cc3ccco3)c2ncn1CCN1CCOCC1	inconclusive [cytotoxic, single point]	
Cc1ccc(S(=O)(=O)N2Cc3ccccc3CC2C(N)=O)cc1 (centres undefined)	inactive	
COc1ccc(-n2nc(C(=O)NCC(=O)N3CCN(c4cccc(Cl)c4)CC3)c3ccccc3c2=O)c(OC)c1	inactive	
COc1ccc(-c2cnc3c(NC=O)cc(-c4ccccc4)cn23)cc1OC	inconclusive [cytotoxic, full curve]	
CCN(CC)CCCNC(=O)c1cc(-c2ccc(Cl)c(Cl)c2)on1	inconclusive [cytotoxic, single point]	
Cc1ccc2c(c1)cc1c(=O)[nH]ncn12	inactive	
CCOc1ccc(C2=CSC3=NCCN23)cc1	inactive	
CN=C(Nc1cc(C)nn1-c1ccccc1)c1ccc(F)cc1	inconclusive [rising, single point]	
COc1cc(C)ccc1OCC(=O)NC1CCCCCC1	inactive	
COc1ccccc1N(C(=O)CCl)c1cn(C(C)=O)c2ccccc12	active: 1.46 µM	
Cc1noc(C)c1COc1ccccc1C(=O)NCc1ccco1	inactive	

SMILES	Potency	activity, negative = less viability
O=C1Nc2ccccc2/C1=C/c1ccccc1Cl	inconclusive [cytotoxic, single point]	
CCCCCCCCN1C(=O)[C@H](CC(=O)NCc2ccc(OC)c(OC)c2)C[C@@]2(C(=O)OC)CC(C)(C)CC=C12	inconclusive [cytotoxic, single point]	
COc1ccc(S(=O)(=O)N2CCN(CC(=O)c3ccc(O)c(O)c3)CC2)cc1	inactive	
CC(C)(C)NC(=O)CN1C(=O)NC(c2ccccc2)(c2ccccc2)C1=O	inactive	
Cc1ccc2oc(C(=O)NCc3ncc(C)[nH]3)c(C)c2c1	active: 18.4 µM	
O=C(NCC1CC1)C1Cc2c(-c3cccc(F)c3)ccnc2O1 (centres undefined)		inconclusive: 26.3%
COc1ccc(N(CC(=O)N2CCc3ccccc3C2)S(=O)(=O)c2ccccc2)cc1	inactive	
Cc1cccc(-c2cc3nc(C)cc(NCCCN(C)C)n3n2)c1	inconclusive [cytotoxic, single point]	
Cc1cc(N2CCN(C(C(=O)NC3CCCC3)c3ccc(F)cc3)CC2)c2ccccc2n1 (centres undefined)	inconclusive [cytotoxic, single point]	
O=C(CSc1nnc2sc3ccccc3n12)NCc1ccco1	inconclusive [cytotoxic, single point]	
CC(C)CCNc1nc(N)c([N+](=O)[O-])c(N2CCCCCC2)n1	inconclusive [cytotoxic, single point]	
O=C(NC(=S)Nc1ccc(N2CCOCC2)cc1)c1cccc(Cl)c1Cl	inactive	
CSc1nc(=O)n(CCC#N)nc1SC	inconclusive [cytotoxic, single point]	
CCN(CC)c1ccc(/C=C(\C#N)C(=O)c2ccc(Br)cc2)cc1	inconclusive [cytotoxic, single point]	
CC1(C(=O)NS(=O)(=O)c2ccc(C#N)cc2)CCN1C(=O)Cc1cccc2ccccc12 (centres undefined)	inconclusive [rising, single point]	
O=C(COC(=O)c1cc(Cl)ccc1O)NNC(=O)c1ccccc1F	inactive	
CN(CC(=O)Nc1ccc(C#N)cc1)Cc1ccc(Cl)c(Cl)c1		inconclusive: -30.2% [cytotoxic]
CC(C)CC(=O)N1CCN(Cc2ccc(Cl)cc2)CC1	inactive	
CCC(CC)C(=O)Nc1cccc(-c2nc3ccccc3o2)c1	inconclusive [cytotoxic, single point]	
Cc1[nH]n(-c2cccc3ccccc23)c(=O)c1/C=N/NC(=O)c1cccc([N+](=O)[O-])c1	inconclusive [cytotoxic, single point]	
CCc1ccc(NC(=O)CCn2ccnc2C)cc1	inconclusive [rising, full curve]	
CCCOC(=O)c1[nH]c2c(c1C)C(=O)CC(c1cccs1)C2 (centres undefined)	active: 1.3 µM	
O=C(COC(=O)c1ccc(Cl)nc1)Nc1c(Cl)cccc1C(F)(F)F	inconclusive [cytotoxic, full curve, poor fit]	
COc1ccc2c(c1)CC/C(=C\Nc1ccc3c(c1)OCO3)C2=O	inconclusive [cytotoxic, single point]	
COC(=O)c1cc(OC)c(OC)cc1NC(=O)c1cc(C(C)(C)C)oc1C	inconclusive [rising, single point]	

SMILES	Potency	activity, negative = less viability
O=S(=O)(NC1c2cccc3cccc(c23)C1N1CCNCC1)c1ccc(Cl)cc1 (centres undefined)	active: 18.4 µM	
CC(C)N(C(=O)c1nn(C)c2c1CSc1ccccc1-2)C1CCCCC1	inconclusive [cytotoxic, partial curve]	
C/C(=N\NC(=S)NCc1ccccc1)c1cccs1	inactive	
C=CCn1c(SCC(=O)c2c(N)n(CCC)c(=O)n(C)c2=O)nc2sc(CC)cc2c1=O	inactive	
CCCCN(CCCNC(=O)c1ccc(CS(=O)(=O)c2c(Cl)cccc2Cl)o1)Cc1ccccc1	inconclusive [cytotoxic, single point]	
CC(C)(C)c1ccc(-c2n[nH]c(=S)n2C2CCCC2)cc1	inconclusive [cytotoxic, single point]	
CCOC(=O)c1c(-c2ccccc2)oc2ccc(O)c(CN3CCOCC3)c12	inconclusive [cytotoxic, single point]	
N#CC1=C(N)C(C#N)(C#N)C(c2cccnc2)C2CN(C(=O)OCc3ccccc3)CC=C12 (centres undefined)	inconclusive [cytotoxic, single point]	
O=C1CCCN2N=C(SCC(=O)Nc3cccc(Cl)c3)SC2=N1	inconclusive [cytotoxic, single point]	
COc1ccc(NC(=S)NNc2ccc([N+](=O)[O-])cc2S(=O)(=O)Nc2ccc(C)cc2C)cc1	active: 23.1 µM	
COC(=O)C1=C(C(=O)OC)[C@@H]2N(C)c3ccccc3[C@@]23C[C@@H](C(=O)OC)N(C(=O)c2ccc(Br)cc2)C3=N1	inconclusive [cytotoxic, single point]	
O=C(Nc1cccc(O)c1)N1CCOCC1	inactive	
Cn1cc(S(=O)(=O)N2CCCC2)cc1C(=O)N1CCN(c2cccc(Cl)c2)CC1	inconclusive [cytotoxic, single point]	
CCN(CC(=O)NCc1cccs1)C(=O)/C=C/c1cc(Br)ccc1OC(F)F	inactive	
CO/N=C(\c1nonc1N)N1CCN(c2ccc(Cl)cc2[N+](=O)[O-])CC1	inconclusive [cytotoxic, single point]	
CC(=O)Nc1ccc(S(=O)(=O)N2CCN(Cc3cccc([N+](=O)[O-])c3)CC2)cc1	inactive	
Cc1nnsc1S(=O)(=O)Cc1ccccc1Cl	inactive	
Cc1cc(NC(=O)CN2C(=O)S/C(=C\c3ccccc3)C2=O)no1	inactive	
COc1ccc(CCNC(=S)Nc2cccc(C)c2)cc1	inactive	
Cc1ccc(-c2ccc(SCC(=O)Nc3nonc3C)nn2)cc1	inconclusive [cytotoxic, single point]	
CCc1cc(C(=O)/C=C/c2cc3c(cc2C)OCCO3)c(O)cc1O	inconclusive [cytotoxic, single point]	
CCc1c(C)nc2c(-c3ccccc3OC)c(C)[nH]n2c1=O	inactive	
CN(C)S(=O)(=O)c1ccc(Cl)c(NC(=O)c2ccncc2)c1	inactive	
COc1ccc(C=C2CS(=O)(=O)CC(=Cc3ccc(OC)cc3)C2=O)cc1	inconclusive [cytotoxic, partial curve, poor fit]	
